The supplement of paper PMC10369915
Some of the results follow. No stated cut-off is given here; in the data, active = 3.2 or more and inactive = the rest. Most of these values are background signal.

B1: ALB_Y172_Y174F (peptide)
chain: ARRHPYFFAPE
B2: ALB_Y174_Y174F_YF (peptide)
chain: RHPFFFAPELL
B3: ALB_Y343 (peptide)
chain: DVCKNYAEAKD
B4: ALB_Y343_E345K (peptide)
chain: DVCKNYAKAKD
B5: ALB_Y377 (peptide)
chain: RLAKTYETTLE
B6: ALB_Y394 (peptide)
chain: DPHECYAKVFD
B7: ALB_Y394_K396E (peptide)
chain: DPHECYAEVFD
B8: ALB_Y425_E420K (peptide)
chain: KQLGEYKFQNA
B9: ALB_Y521 (peptide)
chain: EVDETYVPKEF
B10: ALB_Y521_E525K (peptide)
chain: EVDETYVPKKF
B11: ALCAM_Y298_T301M (peptide)
chain: RSSNTYTLMDV
B12: ALDH1A1_Y119 (peptide)
chain: LYSNAYLNDLA
B13: ALDH1A1_Y119_N121S (peptide)
chain: LYSNAYLSDLA
B14: ALDH1A3_Y497_A493P (peptide)
chain: YPLAEYTEVKT
B15: ALDH2_Y502_E504K (peptide)
chain: YGLQAYTKVKT
B16: ALDOB_Y204_E207Q (peptide)
chain: LEHCQYVTQKV
B17: ALK_Y1096 (peptide)
chain: DYNPNYCFAGK
B18: ALK_Y1278_Y1278S_YF (peptide)
chain: MARDISRASFF
B19: ALK_Y1282 (peptide)
chain: IYRASYYRKGG
B20: ALK_Y1282_Y1278S_YF (peptide)
chain: ISRASYFRKGG
B21: ALK_Y1282_YF (peptide)
chain: IFRASYFRKGG
B22: ALK_Y1283_Y1278S (peptide)
chain: SRASYYRKGGC
B23: ALOX12_Y295 (peptide)
chain: RGEKQYLAAPL
B24: ALOX12_Y295_A298T (peptide)
chain: RGEKQYLATPL
B25: ALOX5_Y446 (peptide)
chain: MKDLTYASLCF
B26: ALPK3_Y342_T338I (peptide)
chain: HILQLYRCREE
B27: ALPL_Y117_G120R (peptide)
chain: GTATAYLCRVK
B28: ALX3_Y181_R183W (peptide)
chain: HYPDVYAWEQL
B29: ALX3_Y181_YF (peptide)
chain: HFPDVYAREQL
B30: AMZ2_Y26_N30D (peptide)
chain: VLVSQYEKLDA
B31: ANAPC4_Y469 (peptide)
chain: NRKGKYFNVER
B32: ANG_Y38_K41E (peptide)
chain: FLTQHYDAEPQ
B33: ANG_Y38_K41I (peptide)
chain: FLTQHYDAIPQ
B34: ANG_Y38_Y38H (peptide)
chain: FLTQHHDAKPQ
B35: ANK1_Y624_R619H (peptide)
chain: HSLLQYGGSAN
B36: ANK2_Y1455_E1458G (peptide)
chain: ITLPIYTKGSE
B37: ANKZF1_Y572_R569W (peptide)
chain: RAWPPYTVAAD

What follows are binders tested against SHP2 C-SH2 domain E139D (assay: enrichment score (SH2-bound / input frequency) (ratio); bacterial display of known human phosphotyrosine sites (pTyr-Var adds point mutants) read by sequencing; higher = stronger binding; tyrosines were phosphorylated by kinases first). Conditions: peptide library: pTyr-Var.
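Further: displayed peptides selected on beads carrying the immobilized SH2 domain, with library peptides lacking any tyrosine serving as negative controls.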

Enrichment score, inactive:
B1 0.28
B2 2.94
B3 0.869
B4 0.508
B5 0.729
B6 1.18
B7 0.727
B8 0.781
B9 0.553
B10 0.605
B11 0.944
B12 0.901
B13 0.841
B14 1.14
B15 1.29
B16 0.688
B17 0.772
B18 0.719
B19 0.273
B20 0.333
B21 0.312
B22 0.402
B23 0.599
B24 0.826
B25 1.06
B26 0.25
B27 0.729
B28 1.21
B29 0.98
B30 1.03
B31 0.326
B32 1.06
B33 1.19
B34 1.36
B35 0.919
B36 0.903
B37 0.864

What follows are binders tested against SHP2 C-SH2 domain wild-type in the same assay as above. Conditions: peptide library: pTyr-Var.

Enrichment score, inactive:
B1 0.264
B2 3.05
B3 0.96
B4 0.532
B5 0.621
B6 1.55
B7 0.751
B8 0.769
B9 0.443
B10 0.656
B11 0.696
B12 0.782
B13 1.16
B14 1.35
B15 1.65
B16 1.15
B17 0.777
B18 0.649
B19 0.247
B20 0.348
B21 0.314
B22 0.26
B23 0.48
B24 0.55
B25 1.42
B26 0.156
B27 0.64
B28 1.02
B29 0.931
B30 0.677
B31 0.387
B32 0.837
B33 0.901
B34 1.22
B35 0.887
B36 0.958
B37 0.887

These binders were tested against SHP2 N-SH2 domain L43F in the same assay as above. Conditions: peptide library: pTyr-Var.

Enrichment score, inactive:
B1 0.286
B2 2.72
B3 0.919
B4 0.544
B5 0.676
B6 1.25
B7 0.738
B8 0.833
B9 0.434
B10 0.561
B11 0.515
B12 1.01
B13 0.69
B14 0.812
B15 1.03
B16 0.818
B17 0.606
B18 0.655
B19 0.243
B20 0.24
B21 0.363
B22 0.289
B23 0.698
B24 0.54
B25 2.11
B26 0.22
B27 0.63
B28 1.53
B29 0.965
B30 0.916
B31 0.406
B32 0.93
B33 1.05
B34 1.43
B35 0.806
B36 1.1
B37 1.18

Each binder was assayed against SHP2 N-SH2 domain T42A in the same assay as above. Conditions: peptide library: pTyr-Var.

Enrichment score, inactive:
B1 0.279
B2 2.91
B3 0.72
B4 0.485
B5 0.665
B6 0.846
B7 0.735
B8 0.596
B9 0.489
B10 0.536
B11 2.45
B12 1.45
B13 0.737
B14 1.74
B15 1.37
B16 0.793
B17 0.702
B18 0.586
B19 0.262
B20 0.273
B21 0.353
B22 0.227
B23 0.532
B24 0.479
B25 2.04
B26 0.277
B27 0.65
B28 1.3
B29 0.626
B30 0.955
B31 0.383
B32 0.684
B33 0.898
B34 1.16
B35 0.635
B36 0.85
B37 0.491

These binders were tested against SHP2 N-SH2 domain T52S in the same assay as above. Conditions: peptide library: pTyr-Var.

Enrichment score, inactive:
B1 0.244
B2 3.14
B3 0.853
B4 0.502
B5 0.795
B6 1.04
B7 1
B8 0.679
B9 0.464
B10 0.587
B11 0.746
B12 0.966
B13 0.83
B14 0.97
B15 0.893
B16 0.62
B17 0.447
B18 0.678
B19 0.302
B20 0.234
B21 0.482
B22 0.313
B23 0.587
B24 0.589
B25 1.55
B26 0.303
B27 0.646
B28 1.22
B29 1.04
B30 1.04
B31 0.45
B32 0.878
B33 0.948
B34 1.31
B35 0.892
B36 0.86
B37 0.608

Each binder was assayed against SHP2 N-SH2 domain wild-type in the same assay as above. Conditions: peptide library: pTyr-Var.

Enrichment score, inactive:
B1 0.184
B2 2.65
B3 1
B4 0.555
B5 0.908
B6 1.61
B7 0.942
B8 0.759
B9 0.609
B10 0.655
B11 0.627
B12 0.842
B13 0.866
B14 1.46
B15 0.839
B16 1.03
B17 0.77
B18 0.748
B19 0.177
B20 0.321
B21 0.276
B22 0.24
B23 1.01
B24 0.767
B25 1.7
B26 0.42
B27 0.644
B28 1.06
B29 0.858
B30 0.84
B31 0.539
B32 0.843
B33 0.942
B34 1.21
B35 1.1
B36 1.03
B37 0.954
